In article PMC6919601, “Identification of Plasmodium dipeptidyl aminopeptidase allosteric inhibitors by high throughput screening” (PLoS ONE, 2019):
The campaign covered roughly 110,000 compounds. About 230 (0.21%) showed an effect of 50% or more. The list shows a part of the results.

What follows are molecules tested against DPAP1 (Plasmodium falciparum, UniProt Q8IIJ9) (assay: primary screen, percent inhibition; read by cleavage of a fluorogenic dipeptide substrate; higher = more effect of the substance).
Parameters: species or system P. falciparum D10 trophozoite lysates; single well
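Note: 30 min substrate incubation versus DMSO and 10 µM JCP410 controls.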

Sequence of DPAP1 (Q8IIJ9 whole entry, looked up): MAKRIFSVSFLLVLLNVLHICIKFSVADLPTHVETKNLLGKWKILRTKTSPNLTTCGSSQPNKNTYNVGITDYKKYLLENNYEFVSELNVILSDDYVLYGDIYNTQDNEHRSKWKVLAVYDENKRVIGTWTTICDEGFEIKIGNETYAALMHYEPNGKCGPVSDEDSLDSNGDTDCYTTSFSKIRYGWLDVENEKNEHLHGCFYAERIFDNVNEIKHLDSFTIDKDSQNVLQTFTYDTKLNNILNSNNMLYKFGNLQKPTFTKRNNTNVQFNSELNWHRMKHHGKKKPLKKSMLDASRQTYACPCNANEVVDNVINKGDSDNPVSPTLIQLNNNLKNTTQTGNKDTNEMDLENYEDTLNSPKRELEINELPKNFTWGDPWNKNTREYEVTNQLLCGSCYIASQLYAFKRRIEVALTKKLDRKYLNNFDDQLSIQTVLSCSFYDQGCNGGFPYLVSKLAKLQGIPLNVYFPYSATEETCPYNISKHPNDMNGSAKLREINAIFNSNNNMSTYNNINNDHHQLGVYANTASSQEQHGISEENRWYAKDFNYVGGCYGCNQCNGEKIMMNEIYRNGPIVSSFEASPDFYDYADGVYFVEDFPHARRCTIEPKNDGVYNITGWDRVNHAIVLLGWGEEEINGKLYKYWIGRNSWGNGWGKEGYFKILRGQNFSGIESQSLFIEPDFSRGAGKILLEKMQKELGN

Compound | % Inhibition @ 10 uM
CC(NC(=O)NCc1noc2ccccc12)c1ccccc1 (stereo not drawn) | 1.93%
COc1ccc2[nH]c3c(c2c1)CCNC3c1cccc(O)c1 (stereo not drawn) | -4.12%
O=C(Nc1cccc(CCc2ccccn2)c1)NC1CCCCC1 | -1.98%
COCCN1C(=O)c2ccccc2C(C(=O)N2CC(C)CC(C)C2)C1c1c[nH]c2ccccc12 (stereo not drawn) | 9.11%
COc1ccccc1/C=C/c1nn2c(-c3ccncc3)nnc2s1 | 4.47%
Cc1c2ccccc2cc[n+]1CCCS(=O)(=O)O | 1.25%
CCCN(CCO)Cc1ccc(Br)s1 | 1.38%
CCCCCOC(=O)c1ccc2c(c1)C(=O)N(c1ccc(OC)cc1)C2=O | 0.912%
Cc1ccc2[nH]c3c(c2c1)CCCC3NC1CCCCC1 (stereo not drawn) | -0.482%
CC[C@H](C[C@H](NC(=O)OCc1ccccc1)C(=O)NCC#N)c1ccccc1 | -6.56%
O=C(O)C1CC=CCC1C(=O)N1CCCc2ccccc21 (stereo not drawn) | 5.26%
CC1CCN(S(=O)(=O)c2ccc(NC(=O)CC(C)(C)C)cc2)CC1 | 0.709%
COc1cc(CN2CCN(c3ccccc3F)CC2)cc(OC)c1OC | -2.81%
CSc1nnc(NC(=O)Cc2coc3ccc(C)cc23)s1 | -2.4%
CC(=O)c1sc2nc3ccccc3n2c1C | 2.33%
N#C/C(=C\c1nc2ccccc2[nH]1)c1ccc(N2CCCCC2)cc1 | 3.48%
O=C(CCCN1C(=O)c2cccc3cccc(c23)C1=O)NCC1CCCO1 (stereo not drawn) | 11.8%
COc1nc(Nc2ccccc2)nc(NC(C)(C)C)n1 | 5.37%
O=C(CCCCCN1C(=O)C2C3C=CC(C3)C2C1=O)Nc1ncccc1O (stereo not drawn) | -4.62%
CCCN1C(=O)S/C(=C\c2cc(Br)c(O)c(OC)c2)C1=O | -6.02%
CC(=O)C1=C(C)N(C)C(=O)NC1c1cccs1 (stereo not drawn) | 0.708%
CCCOc1ccc(N2C(=O)CC(N3CCN(Cc4ccccc4)CC3)C2=O)cc1 (stereo not drawn) | 3.8%
CN1CCN(Cc2ccccc2)CC1 | -3.71%
CN1C(=O)C(=CNC2CC(C)(C)NC(C)(C)C2)C(=O)N(C)C1=O | 2.38%
CC1=C(C(=O)Nc2ccccc2F)C(c2ccc(F)cc2)C2=C(O)CC(C)(C)CC2=N1 (stereo not drawn) | -5.34%
O=S(=O)(c1ccc(F)cc1)N1CCCN(S(=O)(=O)c2ccc(F)cc2)CC1 | 0.605%

Compound | % Inhibition @ 10 uM
CC(O)c1ccc(NC(=O)c2nn3c(c2Cl)NC(c2cccs2)CC3C(F)(F)F)cc1 (stereo not drawn) | 2.44%
Cc1ccc(C)c(CN2CCC(O)CC2)c1 | 3.1%
Cc1ccc(N2C(=O)CC(NCc3cccc(Cl)c3)C2=O)cc1 (stereo not drawn) | -5.71%
CN1CCN(S(=O)(=O)c2ccc(NC(=O)Nc3cccc(Cl)c3)cc2)CC1 | -0.425%
COc1ccccc1NC(=O)/C(=C/c1ccc(C)o1)NC(=O)c1ccccc1 | 5.67%
CNC(=O)c1ccc2c(c1O)C(=O)c1ccccc1C2=O | 3.81%
COc1ccc(N2C(=O)NC(=O)/C(=C/c3ccc(Br)o3)C2=O)cc1 | -3.09%
CCOC(=O)c1c(C)[nH]c(C)c1S(=O)(=O)NCC(=O)N(C)Cc1ccco1 | 5.51%
CCOc1cc(CNC(=O)c2cc(C3CC3)[nH]n2)cc(OCC)c1OCC | -1.63%
O=C(c1ccccc1)C1(c2ccccc2)COCO1 (stereo not drawn) | 6.61%
COc1ccc(-c2cc(C3CC3)nc3sc(C#N)c(N)c23)cc1 | 0.51%
O=[N+]([O-])c1ccc(CN2CCc3ccccc3C2)s1 | -2.81%
Cc1ccc(OCCN2CCN(c3ncnc4c3cnn4-c3ccccc3)CC2)cc1 | 2.56%
CC1CCCN(CCCNC(=O)c2coc3nc4ccccc4nc23)C1 (stereo not drawn) | 6.95%
CC(=O)Nc1ccc2sc(C)nc2c1 | 0.035%
CC1CCN(Cc2nc3c(c(=O)n(C)c(=O)n3C)n2CCc2ccccc2)CC1 | 3.63%
O=C(NCCN1CCCCCC1)C1CCN(c2nnc(-n3cccc3)s2)CC1 | -4.04%
COc1cccc(NC(=O)CN(c2cc(C)ccc2C)S(C)(=O)=O)c1 | 0.00477%
N#CCNC(=O)C1CCCCN1S(=O)(=O)c1ccc(-c2cccs2)cc1 (stereo not drawn) | 1.7%
c1coc(CNc2ncnc3ccccc23)c1 | -1.44%
CCOc1ccc(/C=N/n2c(C)nnc2C)cc1OC | 13.3%
CC(C)OCCCNC(=O)c1nn(C)c2c1COc1ccccc1-2 | -1.72%
CCOc1ccc(CC(=O)C2=C(N3CCOCC3)CC(C)(C)CC2=O)cc1OCC | 2.99%
Cc1ccc(C(=O)N/C(=C\c2ccco2)C(=O)NCCc2ccccc2F)cc1C | -2.64%
O=C(c1ccccc1)c1cccn1CC(=O)N1CCN(C2CCCCC2)CC1 | -4.04%
